In the supplement of paper PMC3334620:
Over roughly 33,000 sequences, “E-score (-0.5 to 0.5)” has its median near -0.01; the highest 2% begin near 0.26. This is one part of the list.

What follows are sequences tested against Ste12 (UniProt P13574) (assay: PBM E-score (8-mer binding enrichment) (E-score (-0.5 to 0.5)); higher = stronger / more preferred TF binding; most listed sequences are background and not binding sites). Settings: protein concentration: 200 nM; construct: GST-DNA-binding domain.
Summary of the method: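 Full-length yeast transcription factors or their DNA-binding domains, GST-tagged and expressed with PURExpress, were applied at about 100-200 nM to universal all-10-mer Agilent arrays. These arrays had been made double-stranded by primer extension on fresh or once-stripped slides. Detection used fluorescent anti-GST, normalisation used masliner, and E-scores for ungapped eight-base words pooled with reverse complements came from the Universal PBM Analysis Suite.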

Sequence | PBM E-score
ACCCTGTG | -0.155
CCCGGTTA | -0.0757
AGCGGGAA | -0.168
ATGATCGC | -0.0733
CCCCTCTC | -0.152
CTTCCTCA | 0.04
AATTGATA | 0.259
ATGACACA | 0.258
GTTACGCA | 0.00516
CCGCATCA | 0.15
CAGTGGAA | -0.114
AGATCCTG | -0.188
CAGTACCA | -0.193
GATTAGGC | -0.0927
ACGATTAC | -0.0384
CATGGCCA | -0.297
CCAGAGCA | 0.00745
CCTTAACC | 0.0143
CGGATACA | 0.016
AATTGACG | -0.123
GGTAGCGA | -0.0902
CTCGTTCC | 0.051
ACAAAATG | 0.0682
CTACAAGC | -0.108
CATGGGCG | 0.146

Sequence | PBM E-score
CTAAGGTC | 0.0181
GGACGAGA | -0.0489
ATACGCTG | -0.123
ATTCTATA | 0.0795
TCCTATCA | -0.176
ATGTCATG | 0.0163
GCAAGCAC | -0.125
TATACACA | 0.104
GCCTGAGA | -0.101
AAGAACTC | 0.0668
CAGTTAGA | -0.00133
CGAGACCA | -0.00507
CGTCACAA | 0.108
ATTCGTAA | 0.166
GATACCGC | 0.0934
ATCATGTA | 0.0854
GATGTAAA | 0.0157
TCGTAACA | 0.248
AATCCCGT | 0.18
GGCCGCAC | -0.0208
GGAAAAGA | 0.05
ATTACGGA | -0.0037
AGGATCTA | -0.0844
CCCTTAGC | -0.0617
CGTTAAAC | 0.106

Sequence | PBM E-score
CACTAAAA | 0.164
ATGGAACA | 0.00999
AGGGAAAC | -0.0648
TATGATCA | 0.0314
AGAGGTAA | 0.0639
GATCCGAA | 0.169
AGAATGGG | 0.0576
CCTATGGC | -0.192
AAACGGTC | 0.154
AACGAAGA | 0.228
GGCCGAAA | 0.158
CTCCTTGC | -0.18
AAGATCGG | -0.0329
GCGGTAAC | 0.0791
AAAACGTG | 0.183
ACTCAGGA | -0.00569
GCCGCGCA | -0.196
CACCGGCC | -0.177
GGGCAGAC | -0.149
CTCACTGA | 0.0605
CAAAAGAG | 0.137
AATCGGCA | 0.153
AAAAGTTA | 0.224
ACTTTCGA | -0.124
GCGTACGC | -0.143

Sequence | PBM E-score
GGCAGTGA | -0.129
ATAACAAG | 0.182
AAAGGTAA | 0.0185
TCTTTCCA | 0.166
CCAGCCCG | -0.0428
CCTACAGG | -0.321
ATATTTGG | 0.204
CTCCGGAA | 0.0746
GACTACGC | -0.309
ACTATCCG | 0.131
AATTCAAC | 0.122
CGATGGAC | 0.0174
AGGATGTG | 0.0759
ACGGGCCG | -0.11
TCCAGTCA | 0.0312
GATTTAGC | 0.108
CGGCTGCC | 0.0411
AGCGTAAT | -0.0775
TAAACCAA | 0.0193
ATTTACTC | 0.101
TGCTTAAA | 0.15
GCCCTTCA | -0.0938
CATGTATC | 0.138
AGGTCGGA | 0.0829
GACGTCCC | -0.163

Sequence | PBM E-score
AGAACATG | -0.0403
CCAACGGG | 0.0322
CGGTATCA | 0.123
ATTAGACG | 0.0127
ATTGAATA | 0.144
CGAACGGC | -0.0856
GGCTGTGA | -0.148
GAGCAACC | 0.02
AGTCTTCA | 0.015
AGTAGGGG | 0.107
AAAGTTGT | 0.257
AACGAGGC | -0.157
ATTATGAG | 0.0134
ATCCACAG | -0.0612
AACCAAAT | 0.103
CTGCGTTA | -0.0754
GATTGCCA | 0.153
GGAGACCC | -0.118
GCATGACA | -0.131
CTTCGGCC | -0.212
ATAGACAT | -0.0963
GTTCTAGA | -0.118
CTGCTCCA | -0.216
AGCTTTTG | 0.02
TCGTCGAA | -0.114

Sequence | PBM E-score
GCCACCAA | 0.071
CACACCAA | 0.115
ATGTCATA | 0.153
ATTGCGAG | 0.127
AATCGACA | 0.248
ACTCGTCG | -0.0312
TATTTTCA | 0.201
TCTGGGAA | 0.0759
AGCTACCT | -0.00965
CAATGCGG | 0.0105
AAGTATAG | 0.0368
CCTAGTTC | 0.0604
ACTCAGGG | -0.167
CGAGCGCG | 0.0806
CACTAGGG | 0.0129
GGACACAC | -0.112
AGTACAAC | -0.145
CCTTCCAG | -0.0414
GGCCCGCA | -0.0268
AGATGCCA | -0.0827
AATGAAGA | 0.304
AGGTGGCC | -0.19
CACAAGGG | -0.194
ACACAGGT | -0.155
AGTGGGAC | -0.035

Sequence | PBM E-score
ATAAGTAG | -0.0228
ATGCGAAA | 0.128
CTTATCTA | 0.219
AGAGCGTG | -0.0162
CCATGACC | -0.145
AGCCGCGC | 0.0595
GGTCTCCA | -0.0278
GAGTCTTA | -0.146
AATTACGA | 0.186
CCTTGACG | -0.255
ATTTGCTC | 0.0976
AGATTGTG | 0.0132
CAGCTACC | -0.126
CAATCCGG | 0.273
ATTGCTCA | -0.00894
AGAGAAAG | -0.114
AACAGCTG | -0.0391
AACTGCAC | 0.0285
GCTGAAGA | -0.0185
CGACGCAG | -0.237
TCCCGTAA | 0.176
ATTGTTTC | 0.356
ATGTCAGG | 0.145
CCCGAGGA | -0.0268
CAACTGTA | -0.0454

Sequence | PBM E-score
CCACTTCG | -0.0138
AGTACACA | 0.0479
GCTTTCGA | -0.159
CACCTAAC | 0.0515
CTGGTTTA | -0.0225
TCTCGACA | 0.0817
ATTTTCAA | 0.193
ACATAGAA | 0.244
CCCACTTA | 0.0163
CGCAACAG | 0.0203
CCAGATCG | 0.157
CGTTCCGC | 0.0351
AGCTGCCA | -0.0337
CAAACTAC | 0.0311
GCTCCCAC | -0.0278
ACTTCCTC | 0.113
CAGCCCTG | -0.335
CTGGATTC | -0.0392
TAAAGGTA | 0.0174
CACTAAAG | -0.0505
CTTTGATC | 0.109
ATACCTCA | 0.0605
ATTACAAC | -0.0498
AAGACAAA | 0.0815
CAGCGGAC | -0.0786

Sequence | PBM E-score
AAACAATC | 0.234
ATTAATGA | 0.254
ACGTGAGG | -0.0396
ATCAGAGG | -0.126
CAATCCCA | -0.0795
ATACATGG | 0.104
CGCTTGAA | 0.142
GAGATGCA | -0.0126
ATGCTGGG | -0.173
AGGCGAAT | 0.0149
GGTACGAA | 0.125
GCTCACAC | -0.0878
CAGAGAAA | 0.168
ATCGTGTC | 0.0885
AATTTACG | 0.167
ACCAGTCG | -0.16
AAGTCGGC | -0.16
CAAAGCAG | 0.0771
CCATGCTC | -0.189
CAAAAGAA | 0.156
CTCTGTGC | -0.0785
CAAGATTA | 0.116
CTTGTCTC | 0.0745
AAAGCCCC | -0.188
CGGTGTTC | 0.0606

Sequence | PBM E-score
AGGAGGAG | -0.136
CTTTGATA | 0.179
ACAGGCGT | -0.238
ATCTTTAA | 0.0393
ACTTATAT | 0.181
AAGGAGCC | -0.199
AAACTTTC | 0.11
AGGGGCGC | 0.0204
GCATAACA | 0.0198
CGATCGAG | 0.0464
ATTGATGC | 0.206
ACGGTTTA | -0.294
ACTTATCT | 0.0489
AGAGGCCG | -0.288
ATATAAAA | 0.307
CCGGCACA | -0.0858
GCTTTTAC | 0.095
GTGAACGA | 0.047
GCGGTTAA | 0.0154
GACCTAGC | -0.178
CTCGTGAA | 0.0434
CCATCGGA | -0.165
CACGAGAA | 0.123
ATAAACGA | 0.243
CAACGACG | -0.039

Sequence | PBM E-score
AGCGTGTG | 0.0207
GCGGCCGC | 0.119
ACGAAGTC | -0.0818
ACACTCAT | 0.0659
CCCTAATC | -0.0375
CATGCCCA | -0.203
ACGAAAGG | 0.0336
ACTCTAGA | 0.0724
ATCTTGGA | 0.0698
GTTGTTTA | 0.155
AGGCCAAC | -0.243
CGAGACAC | -0.0767
CAGACCGG | -0.185
CTGAATCA | 0.181
GCATGGAC | -0.0826
GCACGGGC | -0.0847
ATCTTTTA | 0.131
AAAGCCGT | 0.0271
CTGAATGA | 0.0145
AAAACTGC | -0.0235
CTACAGCC | -0.126
CTAGGAAC | -0.0455
ACAGGGCC | -0.15
AACCGTTG | -0.159
CGTGGACA | -0.0179

Sequence | PBM E-score
ACGGTCGA | -0.0811
CGCATGCG | 0.0199
AACGGCGC | -0.0862
CGTCCGAA | 0.0274
GTCTTTTA | -0.034
CACGGCAG | 0.0609
AGATTTTC | 0.0703
CGTCAGAC | -0.0997
ATGATGTG | -0.0189
ATAGGTCC | -0.0899
AACGTAAA | 0.153
AGTGCCCG | -0.158
CTGCGCTC | -0.219
GCAAGTGC | -0.217
AACCCTAA | -0.0607
ATAGAAGG | -0.0546
AGCCCCTG | -0.214
GACGTCAA | -0.138
ACGCGTCT | 0.0311
AGCCTCCC | -0.116
ATACACTA | 0.0879
CCGACTGA | 0.0911
CCGACGCC | 0.109
AATAGGGT | 0.148
CACACTCA | 0.0712

Sequence | PBM E-score
ATGTGGCG | -0.081
GCCCTCGC | -0.0381
GTGTATAA | -0.15
CCCGGGCC | -0.194
AATTGTCC | 0.148
ACAGTACA | 0.00937
AGATCGGA | 0.129
CCTGATTA | 0.091
CAAGTATG | 0.0625
TCGAGCGA | -0.0486
CAAATCAA | 0.194
CCGCACAC | 0.0886
ACACAAAG | 0.051
CACGCTCC | -0.131
CAGATATA | 0.0413
CGAATCCG | 0.0624
AAAAGCCT | -0.232
ATAGTCAT | -0.141
ATTCGCGA | 0.0844
CCCCCCCG | -0.257
CCTTTAAC | 0.0881
AATCCTTA | -0.0708
GAAGTCAA | 0.12
AGCCTTTC | -0.246
ATTCAACA | 0.111

Sequence | PBM E-score
CCGACCCA | 0.0514
GACTGTGC | -0.0863
CCCCTGCG | -0.0485
CAAAGGCC | -0.0534
ACGGGCCA | -0.14
CGCCGGCA | -0.0585
GTGACAGA | -0.0744
ACTGAACG | -0.163
ATTGTACA | -0.04
TTATGCAA | 0.0901
AAGTACGC | -0.102
ACGCTGGC | -0.128
AACAGTAC | 0.014
CTTGAGGC | -0.184
CCTTTTTC | 0.134
GTAGTTTA | 0.157
GAATAGCA | -0.132
AGACTTTA | -0.0902
AGCACAGA | 0.172
